# Measured values reported in paper PMC4336329 (PLoS ONE, 2015).
# In all, about 310,000 compounds went through this assay and about 14,000 (4.5%) showed an effect of 50% or more. The effect is printed as a negative number. Some of the results follow.
# Molecular target: human ether-à-go-go-related gene (hERG) potassium channel (human, UniProt Q12809)
# Experiment: primary screen, population patch clamp on CHO cells stably expressing hERG
# 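Further: peak tail current of the secondary pulse compared with the same well before compound.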
# Sequence of human ether-à-go-go-related gene (hERG) potassium channel (Q12809 whole entry, looked up): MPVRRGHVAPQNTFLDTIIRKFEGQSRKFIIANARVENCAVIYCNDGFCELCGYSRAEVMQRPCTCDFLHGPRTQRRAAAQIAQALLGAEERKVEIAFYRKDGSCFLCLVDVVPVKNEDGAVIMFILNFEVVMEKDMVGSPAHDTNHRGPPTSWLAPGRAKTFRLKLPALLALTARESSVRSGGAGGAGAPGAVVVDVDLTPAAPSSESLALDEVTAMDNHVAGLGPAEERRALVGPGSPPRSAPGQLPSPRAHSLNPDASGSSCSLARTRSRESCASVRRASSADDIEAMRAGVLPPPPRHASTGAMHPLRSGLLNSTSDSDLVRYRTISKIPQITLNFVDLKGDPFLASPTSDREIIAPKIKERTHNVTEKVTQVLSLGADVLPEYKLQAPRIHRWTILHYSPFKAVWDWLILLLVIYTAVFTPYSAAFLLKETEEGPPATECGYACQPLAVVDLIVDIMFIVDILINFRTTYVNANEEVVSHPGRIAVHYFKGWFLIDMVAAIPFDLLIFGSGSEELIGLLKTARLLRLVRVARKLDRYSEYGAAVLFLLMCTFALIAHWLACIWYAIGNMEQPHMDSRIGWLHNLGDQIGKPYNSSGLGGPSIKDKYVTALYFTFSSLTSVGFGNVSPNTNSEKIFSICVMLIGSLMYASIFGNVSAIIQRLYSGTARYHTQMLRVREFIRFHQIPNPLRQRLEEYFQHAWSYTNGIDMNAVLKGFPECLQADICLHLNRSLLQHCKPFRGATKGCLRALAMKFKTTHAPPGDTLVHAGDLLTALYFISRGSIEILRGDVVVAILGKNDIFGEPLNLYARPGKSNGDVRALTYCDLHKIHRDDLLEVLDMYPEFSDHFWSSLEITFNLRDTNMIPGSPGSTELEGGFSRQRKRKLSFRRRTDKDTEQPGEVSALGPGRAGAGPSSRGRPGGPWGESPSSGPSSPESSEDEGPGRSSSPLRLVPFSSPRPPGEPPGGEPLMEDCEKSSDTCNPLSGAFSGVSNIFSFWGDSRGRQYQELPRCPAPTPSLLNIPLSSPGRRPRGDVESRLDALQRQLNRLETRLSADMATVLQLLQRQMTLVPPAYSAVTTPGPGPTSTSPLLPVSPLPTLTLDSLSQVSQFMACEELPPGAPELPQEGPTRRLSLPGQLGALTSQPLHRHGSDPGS
row,SMILES,"hERG current change (%, negative = inhibition) at 10uM"
1,COc1ccccc1N(C)S(=O)(=O)c1ccc(Cl)c(C(=O)NNC(=O)c2ccccc2O)c1,-5.92%
2,Nc1cc(Oc2ccc(F)cc2F)cc([N+](=O)[O-])c1,15.4%
3,Cc1nn(Cc2c(F)c(F)c(F)c(F)c2F)c(C)c1NC(=O)c1c([N+](=O)[O-])cnn1C,3.79%
4,Cc1ccc(NC(=O)C2CSC3(C)CCC(=O)N23)cc1S(=O)(=O)N1CCCCCC1 (stereo not shown),-55.4%
5,CNS(=O)(=O)c1ccc(NC(=O)c2cnn3c(C(F)F)cc(-c4ccccc4)nc23)cc1,21.5%
6,O=C(O)c1ccc(/C=C2\SC(=S)N(Nc3ccccc3)C2=O)cc1,0.467%
7,CC(CNC(=O)c1cncc(O)c1)NC(=O)c1cncc(O)c1.Cl (stereo not shown),5.05%
8,COc1cc(C)nc(N2CCCC(C(=O)NCC(C)C)C2)n1 (stereo not shown),5.28%
9,COc1ccccc1NC(=O)CCC(=O)c1ccc(-c2ccccc2)cc1,28.2%
10,O=C(Cc1ccccc1)NCC(=O)OCC(=O)c1ccc(F)cc1,-2.04%
11,C#CCNC(=O)C1=C[C@@H](c2csc3ccccc23)[C@H](CCCO)[C@@H](OCC)O1,-21.7%
12,CC(C)(C)c1ccc(C(=O)NNC(=O)C2CCCCC2)cc1,13%
13,COc1ccc(NC(=S)N(CCc2c(C)[nH]c3ccccc23)Cc2cccnc2)cc1,-32.8%
14,CC(=O)OCc1nc2sc3c(c2c(=O)[nH]1)CCCC3,3.06%
15,C=CCN1C2CCCC1CC(NC(=O)Nc1cc(C)cc(C)c1)C2 (stereo not shown),-51.8%
16,CCc1cc(/C(Cc2ccc3ccccc3n2)=N\O)c(O)cc1O,-3.58%
17,COC(=O)[C@H]1[C@H]2C[C@@H]3c4[nH]c5cc(OC)ccc5c4CCN3C[C@H]2C[C@@H](OC(=O)/C=C/c2cc(OC)c(OC)c(OC)c2)[C@@H]1OC,-2.22%
18,COc1ccc(CCNCC(=O)Nc2ccccc2C(F)(F)F)cc1.O=C(O)C(=O)O,1.63%
19,COc1cc2c(cc1OC)CN(C(=O)c1ccc(OC)c([N+](=O)[O-])c1)CC2,4.43%
20,COc1ccc(CCNc2cc(=O)[nH]c(N)n2)cc1,15.6%
21,COc1ccc(-c2nnc(SCC(=O)c3ccc4c(c3)OCCO4)o2)cc1,-5.71%
22,Cc1ccc(S(=O)(=O)N2[C@@H](c3ccc(Cl)cc3)C(C(=O)O)=CC[C@H]2c2ccc(C(C)C)cc2)cc1,-18.2%
